Like-named read-outs stand apart in the source and are kept apart here.
Key:
[1] = pH 6.8
[2] = Aqueous solubility measurement (shaker, UV at 242 nm); conditions: for Solubility in phosphate buffer pH7 (SsolpH7): phosphate buffer (head: pH7; method: pH 6.8), 37°C, shaken 24 h

Row | Compound | Solubility in phosphate buffer pH7 (SsolpH7) [1] [mg/ml] | also measured
1 | CC(C)c1c(C(=O)Nc2ccccc2)c(-c2ccccc2)c(-c2ccc(F)cc2)n1CC[C@@H](O)C[C@@H](O)CC(=O)[O-].CC(C)c1c(C(=O)Nc2ccccc2)c(-c2ccccc2)c(-c2ccc(F)cc2)n1CC[C@@H](O)C[C@@H](O)CC(=O)[O-].CC(C)c1c(C(=O)Nc2ccccc2)c(-c2ccccc2)c(-c2ccc(F)cc2)n1CC[C@@H](O)C[C@@H](O)CC(=O)[O-].CC(C)c1c(C(=O)Nc2ccccc2)c(-c2ccccc2)c(-c2ccc(F)cc2)n1CC[C@@H](O)C[C@@H](O)CC(=O)[O-].CCO.O.O.[Ca+2].[Ca+2] [Solvate VII] | 0.185 | 
2 | C1CCOC1.CC(C)c1c(C(=O)Nc2ccccc2)c(-c2ccccc2)c(-c2ccc(F)cc2)n1CC[C@@H](O)C[C@@H](O)CC(=O)[O-].CC(C)c1c(C(=O)Nc2ccccc2)c(-c2ccccc2)c(-c2ccc(F)cc2)n1CC[C@@H](O)C[C@@H](O)CC(=O)[O-].[Ca+2] [Solvate II] | 0.192 | 
3 | CC(C)O.CC(C)c1c(C(=O)Nc2ccccc2)c(-c2ccccc2)c(-c2ccc(F)cc2)n1CC[C@@H](O)C[C@@H](O)CC(=O)[O-].CC(C)c1c(C(=O)Nc2ccccc2)c(-c2ccccc2)c(-c2ccc(F)cc2)n1CC[C@@H](O)C[C@@H](O)CC(=O)[O-].CC(C)c1c(C(=O)Nc2ccccc2)c(-c2ccccc2)c(-c2ccc(F)cc2)n1CC[C@@H](O)C[C@@H](O)CC(=O)[O-].CC(C)c1c(C(=O)Nc2ccccc2)c(-c2ccccc2)c(-c2ccc(F)cc2)n1CC[C@@H](O)C[C@@H](O)CC(=O)[O-].[Ca+2].[Ca+2] [Solvate I] | 0.374 | 
4 | CC(C)c1c(C(=O)Nc2ccccc2)c(-c2ccccc2)c(-c2ccc(F)cc2)n1CC[C@@H](O)C[C@@H](O)CC(=O)[O-].CC(C)c1c(C(=O)Nc2ccccc2)c(-c2ccccc2)c(-c2ccc(F)cc2)n1CC[C@@H](O)C[C@@H](O)CC(=O)[O-].CCO.[Ca+2] [Solvate III] | 0.292 | 
5 | CC(C)c1c(C(=O)Nc2ccccc2)c(-c2ccccc2)c(-c2ccc(F)cc2)n1CC[C@@H](O)C[C@@H](O)CC(=O)[O-].CC(C)c1c(C(=O)Nc2ccccc2)c(-c2ccccc2)c(-c2ccc(F)cc2)n1CC[C@@H](O)C[C@@H](O)CC(=O)[O-].CCCCO.[Ca+2] [Solvate VIII] |  | Solubility in phosphate buffer pH7 (SsolpH7) ([2]; listed as Solvate- VIII): 0.387 mg/ml; Solubility in phosphate buffer pH7 (SsolpH7) ([2]; listed as solvate-VIII): 0.374±0.06 mg/ml; solubility ranking among ATC forms ([2]; phosphate buffer pH 6.8, 37°C): most soluble
6 | CC(C)(C)O.CC(C)c1c(C(=O)Nc2ccccc2)c(-c2ccccc2)c(-c2ccc(F)cc2)n1CC[C@@H](O)C[C@@H](O)CC(=O)[O-].CC(C)c1c(C(=O)Nc2ccccc2)c(-c2ccccc2)c(-c2ccc(F)cc2)n1CC[C@@H](O)C[C@@H](O)CC(=O)[O-].CC(C)c1c(C(=O)Nc2ccccc2)c(-c2ccccc2)c(-c2ccc(F)cc2)n1CC[C@@H](O)C[C@@H](O)CC(=O)[O-].CC(C)c1c(C(=O)Nc2ccccc2)c(-c2ccccc2)c(-c2ccc(F)cc2)n1CC[C@@H](O)C[C@@H](O)CC(=O)[O-].[Ca+2].[Ca+2] [Solvate IV] |  | Solubility in phosphate buffer pH7 (SsolpH7) [2]: 0.225 mg/ml
7 | CC(C)=O.CC(C)=O.CC(C)c1c(C(=O)Nc2ccccc2)c(-c2ccccc2)c(-c2ccc(F)cc2)n1CC[C@@H](O)C[C@@H](O)CC(=O)[O-].CC(C)c1c(C(=O)Nc2ccccc2)c(-c2ccccc2)c(-c2ccc(F)cc2)n1CC[C@@H](O)C[C@@H](O)CC(=O)[O-].CC(C)c1c(C(=O)Nc2ccccc2)c(-c2ccccc2)c(-c2ccc(F)cc2)n1CC[C@@H](O)C[C@@H](O)CC(=O)[O-].CC(C)c1c(C(=O)Nc2ccccc2)c(-c2ccccc2)c(-c2ccc(F)cc2)n1CC[C@@H](O)C[C@@H](O)CC(=O)[O-].CCO.[Ca+2].[Ca+2] [Solvate VI] | 0.245 | 
8 | CC(C)c1c(C(=O)Nc2ccccc2)c(-c2ccccc2)c(-c2ccc(F)cc2)n1CC[C@@H](O)C[C@@H](O)CC(=O)[O-].CC(C)c1c(C(=O)Nc2ccccc2)c(-c2ccccc2)c(-c2ccc(F)cc2)n1CC[C@@H](O)C[C@@H](O)CC(=O)[O-].CO.[Ca+2] [Solvate V] | 0.341 | 

Source: paper PMC3547732 (Chemistry Central Journal, 2012)
